# Screen size: about 120,000 compounds; about 5,300 (4.4%) were called active. Inconclusive results, whose numbers are uncertain, are shown with a selection of clear calls. Calls come from the whole dose curve; as a rule, active = well fitted inhibition curve with a large enough effect; inconclusive = small, poorly fitted or top-dose-only effect; inactive = no such curve, though single readings can be large or run the other way. Where the call is inconclusive, the potency comes from a doubtful curve fit.
# Assay: qHTS Primary assay for Inhibitors of Plasmodium falciparum Dd2 growth in vitro; note: nearly all actives have a fitted effect of over 65% in size;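 for activity, negative = inhibition: plate controls were DMSO vehicle for no effect and reference drug for full effect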
# Details: P. falciparum Dd2 growth, SYBR Green, 72 h; activity, negative = inhibition: at 28.9 µM (top of the series) unless noted; series mostly up to 28.9 µM
# How it was run: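 Readout: SYBR Green fluorescence, 485 nm excitation, 535 nm emission, after ~16 h lysis at 37C. Before that, Dd2-infected red cells (2.5% hematocrit) grew 72 h with compound, 29 uM top final concentration.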
# Potency is the fitted concentration of half-maximal effect; tags give direction and shape of the fitted curve.
Compound,Potency,"activity, negative = inhibition",outcome
CCOC(=O)c1cc(-c2ccc(F)cc2)n(CCC(=O)NCCc2ccc(C)cc2)c1C,"inconclusive: 10 µM [inhibitor, single point]",,
O=C(Nc1ccccc1)[C@@H]1C[C@H](c2ccc(F)cc2)N([S+](=O)([O-])C2CC2)C1,"inconclusive: 17.8 µM [inhibitor, partial curve, poor fit]",,
NC(=O)CN1C(=O)CO[C@H]2CN(Cc3ccc4c(c3)OCO4)C[C@H]21,"inconclusive: 0.158 µM [inhibitor, full curve, poor fit]",,
CSCCC(NS(=O)(=O)c1ccc2c(c1)oc(=O)n2C)C(=O)N1CCN(c2cccc(Cl)c2)CC1 (configuration not stated),"inconclusive: 8.91 µM [inhibitor, single point]",,
O=C(CCc1nc(-c2cccnc2)no1)NCc1cc2n(n1)CCCNC2,,inactive: 15%,
CCN1c2cc(C(=O)NCc3cc(F)ccc3F)ccc2C(=O)N2CCCCC21 (configuration not stated),active: 3.98 µM,,
CC1Oc2ccc(NC(=O)c3ccc(Cl)cc3)cc2CN(Cc2cc(F)cc(F)c2)C1=O (configuration not stated),"inconclusive: 3.16 µM [inhibitor, full curve]",,
Cc1cncc(C(=O)N2CCOc3c(O)cc(-c4nc5ccccc5s4)cc3C2)c1,active: 7.94 µM,,
CN(C(=O)c1cc2c(s1)-c1ccc(Cl)cc1SC2)c1cccc(C(F)(F)F)c1,"inconclusive: 17.8 µM [inhibitor, partial curve, poor fit]",,
COc1cccc(CNC(=O)[C@@H]2C[C@@H](O)CN2C2CCN(C(=O)C3(c4ccccc4)CC3)CC2)c1,"inconclusive: 3.16 µM [inhibitor, partial curve, poor fit]",,
O=[S+]1([O-])NC2(CCN(Cc3ccoc3)CC2)COc2ccccc21,,inactive: -20.5%,
O=C(Cn1cccc1-c1nc(-c2ccccc2)no1)Nc1cccc(F)c1,"inconclusive: 2.51 µM [inhibitor, full curve, poor fit]",,
COCC(=O)N1CCCC(C(=O)N2CCC(C#N)(c3ccccc3)CC2)C1 (configuration not stated),,inactive: -8.37%,
Cc1ccc(C(=O)Nc2ccccc2)cc1S(=O)(=O)N1CCCC1,,inactive: -19.5%,
CN(C)Cc1cn(C[C@H]2C[C@@H](NC(=O)Nc3cccnc3)[C@H](O)[C@@H]2O)nn1,,inactive: 3.84%,
O=C(O)C(Cc1ccco1)n1cc(-c2nccs2)nn1 (configuration not stated),,inactive: -12.3%,
CC1=C[C@@H](CNC(=O)C2CC2)[C@H](C(C)C)C[C@H]1Cc1nnc(-c2ccccc2F)o1,active: 15.8 µM,,
Cc1ccccc1C(CNC(=O)c1cc(-c2ccc(F)cc2)n[nH]1)N(C)C (configuration not stated),"inconclusive: 11.2 µM [inhibitor, single point]",,
Fc1ccc(-c2noc3ncnc(NCC4CCN(Cc5ccc(Cl)cc5)CC4)c23)cc1,"inconclusive: 8.91 µM [inhibitor, partial curve, poor fit]",,
COc1ccc(CC(=O)N2CCC3(CC2)CN(c2ncccn2)CC3CO)cc1 (configuration not stated),"inconclusive: 17.8 µM [inhibitor, single point]",,
CC1CCN(C(=O)c2cc3c(s2)CCN(C(=O)c2ccc(Cl)cc2)C3)CC1,"inconclusive: 7.94 µM [inhibitor, partial curve, poor fit]",,
CCC1(N2CCN(C(=O)Nc3cc(Cl)ccc3OC)CC2)CCN(C(=O)NC)C1 (configuration not stated),,inactive: -13.3%,
COc1cc(F)ccc1-c1ccnc2nc(-c3cccs3)nn12,"inconclusive: 12.6 µM [inhibitor, partial curve]",,

Compound,Potency,"activity, negative = inhibition",outcome
COc1cccc(NC(=O)c2cnc3n[nH]c(-c4ccc(OC)cc4C)c3n2)c1,,inactive: -24.7% [at 44.1 µM],
CN(C)c1ccc(CN2CCC3(CC2)CC(=O)Nc2ccccc2O3)cc1,"inconclusive: 7.94 µM [inhibitor, partial curve]",,
O=C(Nc1ccc(Cl)cc1)N1CCN(c2ccc3nnc(-c4ccccc4)n3n2)CC1,"inconclusive: 11.2 µM [inhibitor, single point]",,
COc1cccc(CNC(=O)c2ccc3c(c2)N(C)C2CCCCN2C3=O)c1OC (configuration not stated),,,inactive
O=C(CCc1c[nH]c2ccccc12)N1CCC[C@H](n2c(=O)n(CC3CC3)c3cccnc32)C1,"inconclusive: 5.62 µM [inhibitor, partial curve]",,
COCCc1noc([C@@H]2CN(Cc3ccc(C(C)C)cc3)C[C@H]2CO)n1,"inconclusive: 8.91 µM [inhibitor, single point]",,
COC(=O)c1ccc(OC)c(CN2C(=O)N(c3ccc(C(C)=O)cc3)S(=O)(=O)c3ccccc32)c1,"inconclusive: 17.8 µM [inhibitor, single point]",,
CCOC(=O)c1c(C)[nH]c(CCC(=O)Nc2ccc(Cl)cc2C)c1C,"inconclusive: 8.91 µM [inhibitor, partial curve]",,
Cc1ccc(CNCc2c(C(=O)O)n(Cc3ccc(C)cc3)c3cc(C)ccc23)cc1,,inactive: -13.4%,
COC(=O)CNC(=O)C1=NOC2CN([S+](C)(=O)[O-])CC12 (configuration not stated),,inconclusive: -130% [inhibitor],
Cc1cc(C)c(NC(=O)COc2ccc3c(C)cc(=O)oc3c2)c(C)c1,,,inactive
O=S(=O)(NCC(Nc1ccc(Cl)cc1)c1ccccc1)c1ccccc1 (configuration not stated),"inconclusive: 15.8 µM [inhibitor, partial curve, poor fit]",,
CCN(CCCNC(=O)c1cc(Nc2ccccc2OC)nc2ccccc12)c1cccc(C)c1,active: 11.2 µM,,
COCc1cc(C[C@@H]2C[C@H](NC(=O)c3ccco3)C2(C)C)no1,active: 10 µM,,
Cc1cc2nc3n(c(=O)c2n1CC(=O)NCc1ccccc1Cl)CCCCC3,,inactive: -3.38%,
CCN1CCN(C(=O)CCC[C@@H]2[C@H]3CCCN4CCC[C@@H](CN2Cc2ccccc2)[C@@H]34)CC1,"inconclusive: 11.2 µM [inhibitor, single point]",,
O=c1[nH]c(C2CCCN(Cc3ccc(-c4cc(F)cc(F)c4)cc3)C2)nc2ccc(F)cc12 (configuration not stated),"inconclusive: 10 µM [inhibitor, single point]",,
Cc1ccc(NC(c2ccc(Cl)cc2)c2nnc(-c3cccc(F)c3)o2)cc1C (configuration not stated),"inconclusive: 11.2 µM [inhibitor, single point]",,
O=C(Cn1nc2c(cc1=O)CCCCC2)Nc1ccccc1,,inactive: 6.66%,
CCc1c(C)sc2c1CCN(C(=O)Nc1ccc(F)c(Cl)c1)C2c1ccc(F)cc1 (configuration not stated),"inconclusive: 11.2 µM [inhibitor, single point]",,
COc1cccc(CN2CCC3(CC2)NC(=O)c2ccccc2O3)c1,"inconclusive: 7.94 µM [inhibitor, partial curve, poor fit]",,
CC(C)CN1C(=O)c2cccn2CC1CNC(=O)c1ccc(F)cc1 (configuration not stated),,inactive: -10.3%,
CCN(Cc1cnn(CC)c1)C(=O)C1COc2ccccc2C1 (configuration not stated),,inactive: 11.5%,

Compound,Potency,"activity, negative = inhibition",outcome
COc1ccc(-c2ccnc(N[C@H]3CO[C@H]4[C@@H]3OC[C@@H]4NC(=O)c3ccc4c(c3)OCO4)n2)cc1,"inconclusive: 1.12 µM [inhibitor, partial curve, poor fit]",,
O=C(Nc1ccccc1)C1CCN(S(=O)(=O)c2ccc3[nH]c4c(c3c2)CCCCC4)CC1,"inconclusive: 12.6 µM [inhibitor, single point]",,
CC(C)c1nncn1C1CCN(S(=O)(=O)c2cc(F)ccc2F)CC1,,inactive: 2.83%,
CN1CCCN(S(=O)(=O)c2cccc(Br)c2)c2ccccc21,"inconclusive: 17.8 µM [inhibitor, single point]",,
C#CCN(C)CC[C@@H]1CC[C@H](O)[C@@H](C(=O)NC(C)C)O1,,inactive: -12.3% [at 44.1 µM],
C[C@]1(CO)C2CC[C@@H](O)[C@@H](CC(=O)N3CC[C@@H](O)C3)[C@]2(C)CC[C@H]1OC(=O)Nc1ccc(Oc2ccccc2)cc1 (some centres not stated),,inactive: -6.06%,
CCOc1ccc(S(=O)(=O)c2cn(Cc3cc(C)ccc3C)c3ccc(OCC)cc3c2=O)cc1,active: 10 µM,,
CCC(=O)N1Cc2ccccc2CC2(CCN(Cc3ccncc3)CC2)C1,"inconclusive: 11.2 µM [inhibitor, single point]",,
O=C(c1ccc(Cl)cc1)N1CC2(CCCN(C3CCCCC3)C2)Cc2ccccc21 (configuration not stated),"inconclusive: 7.94 µM [inhibitor, partial curve, poor fit]",,
COCCCNC(=O)C(NC(=O)c1ccccc1C)C1CCN(C(=O)c2ccc(F)cc2)CC1 (configuration not stated),"inconclusive: 10 µM [inhibitor, partial curve]",,
Cc1nc(N2CCC(NC(=O)Cc3ccsc3)CC2)cc(C(F)(F)F)n1,,inactive: -2.74%,
N#Cc1cccc(NC(=O)c2cc3c(s2)-c2ccc(Cl)cc2SC3)c1,"inconclusive: 17.8 µM [inhibitor, single point]",,
CCOc1ccc(C(=O)Nc2cc(-c3nc4ccccc4s3)ccc2OC)cc1,"inconclusive: 7.94 µM [inhibitor, single point]",,
O=C(c1cccc(Cl)c1)N1Cc2ccccc2CC2(CCCN2Cc2ccncc2)C1 (configuration not stated),"inconclusive: 10 µM [inhibitor, single point]",,
Cc1nc2cccnc2n1CC1CCCN(C(=O)Nc2ccc(C(F)(F)F)cc2)C1 (configuration not stated),,,inactive
O=C(NCc1ccc(F)cc1)c1nc(-c2cccc(C(F)(F)F)c2)c2ccccn12,"inconclusive: 10 µM [inhibitor, single point]",,
O=C(CCC1CCCCC1)NC1CCN(c2cn[nH]c(=O)c2)CC1,,inactive: 1.89%,
NC(=O)c1ccc(NC(=O)c2cc3n(n2)CC(c2ccc(Br)cc2)OC3)cc1 (configuration not stated),,,inactive
CC(C)c1nnc(C2CN(C(=O)C3(c4ccccc4)CC3)CC23CCOCC3)o1 (configuration not stated),,inactive: -18.7%,
COC1CCCN(c2cc(-c3cccc(C(F)(F)F)c3)nc3c(C)noc23)C1 (configuration not stated),"inconclusive: 12.6 µM [inhibitor, single point]",,
CCOc1ccc(N(C)C(CNS(=O)(=O)c2ccccc2)c2ccccc2)cc1 (configuration not stated),"inconclusive: 17.8 µM [inhibitor, single point]",,
